Measured values from PubChem BioAssay AID1508642 (National Center for Advancing Translational Sciences (NCATS), 2021).
Out of some 43,000 compounds screened, about 200 (0.47%) were called active. Not shown: some 12% with an inconclusive outcome. Calls follow the shape of the dose curve; as a rule, active = well fitted cell-killing curve with a large enough effect; inconclusive = small, poorly fitted or top-dose-only effect, or effect the other way; inactive = flat fitted curve, though single readings scatter. Some of the results follow.

Assay: Cell viability qHTS assay in S16 Pmp22-F2sN cells; also: nearly all actives have a fitted effect of over 65% in size
Conditions: S16 Pmp22-F2sN Schwann cells (luciferase reporters placed in the Pmp22 gene) viability, CellTiter-Glo, 24 h; series mostly up to 57.5 µM; activity change, negative = cytotoxicity: at the top concentration
Procedure, shortened: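 CellTiter-Glo counter-screen, qHTS, 1536-well. Cells: S16(c9) Pmp22-F2sN, 500-1,000/well in DMEM + 10% FBS. Cpd 23 nL pin transfer, 24 h, 37C/5% CO2. Read: luminescence, CCD imager.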
% is scaled to controls: 0 for no effect and ±100 for the full control effect.

Row | Structure (SMILES) | activity change, negative = cytotoxicity
1 | CCN(Cc1nc(-c2ccc(OC)cc2)oc1C)S(=O)(=O)c1ccc(C)cc1 | inactive: -17.2%
2 | O=C(Nc1ccc(Br)cc1)c1cccc(C(=O)Nc2ccc(Br)cc2)c1 | inactive: 4.93%
3 | O=S(=O)(c1ccc(Cl)cc1)c1nc(-c2ccccc2)oc1N1CCN(c2ccccc2)CC1 | inactive: 0.244%
4 | CCOC(=O)c1cc(NC(=O)c2ccc(Cl)cc2)c(=O)n2c1oc1ccccc12 | inactive: 17.7%
5 | O=C(CN1C=NS(=O)(=O)c2ccc(C(F)(F)F)cc21)Nc1cccc(C(F)(F)F)c1 | inactive: 17.7%
6 | Cc1ccc(CNC(=O)Cn2c(=O)n(Cc3ccccc3)c(=O)c3sc4ccccc4c32)cc1 | inactive: 4.49%
7 | COc1ccccc1N1CCN(C(=O)CN2C(=O)COc3ccc(S(=O)(=O)N4CCCC4)cc32)CC1 | inactive: 22.8%
8 | CCc1nc(SCc2cc(=O)c3cc(C)ccc3[nH]2)n[nH]1 | inactive: 0.242%
9 | CCn1c(/C(C#N)=C/c2ccccc2Cl)nc2ccccc21 | inactive: -25%
10 | CCc1cccc(NC(=O)CSc2nc3ccsc3c(=O)n2CC)c1 | inactive: 1.28%
11 | CCc1cc2c(-c3ccccc3)cc(=O)oc2c2c1OCN(Cc1ccc(F)cc1)C2 | inactive: 3.21%
12 | COc1cc(OC)c(NC(=O)Nc2c(C)n(C)n(-c3ccccc3)c2=O)cc1Cl | inactive: -2.42%
13 | Cc1cc(C)c2sc(NC(=O)c3ccc(S(=O)(=O)N4CCOCC4)cc3)nc2c1 | inactive: 10.8%
14 | Cn1c(=O)n(C)c2cc(N3CCOCC3)c(NC(=O)c3c(F)cccc3F)cc21 | inactive: -0.361%
15 | CCC(Oc1ccccc1)C(=O)Nc1ccc(OCc2cc(=O)n3ccccc3n2)cc1 (stereo unspecified) | inactive: 3.2%
16 | COC(=O)c1ccccc1NC(=O)c1ccc2c(=O)n3c(nc2c1)CCCCC3 | inactive: 1.18%
17 | CCOc1ccc(CNC(=O)C2Cc3ccccc3N2C(=O)CC)cc1 (stereo unspecified) | inactive: 6.66%
18 | Cc1ccc(S(=O)(=O)n2nc(-c3ccco3)nc2NCc2ccccc2Cl)cc1 | inactive: 0.297%
19 | Cc1cccc(Cn2cnc3c(cnn3-c3ccc(Cl)cc3)c2=O)c1 | inactive: 6.33%
20 | Cc1cc(C)c2oc(C(=O)Nc3ccc(S(=O)(=O)N4CCC(C)CC4)cc3)cc(=O)c2c1 | inactive: -1.35%
21 | Cc1ccc(CN2CCN(C3CCN(C(=O)Nc4ccccc4C(F)(F)F)CC3)C(=O)C2=O)cc1 | inactive: 4.65%
22 | Cc1cc(C)n2c(Nc3ccccc3)c(-c3ccccc3)nc2n1 | inactive: -13.1%
23 | Cc1ccc(CNC(=O)CCCn2c(=O)c3ccccc3n(Cc3ccccc3C)c2=O)cc1 | inactive: 11.3%
24 | CC(NC(=O)c1ccc2c(c1)N(Cc1ccc(Cl)cc1)C(=O)c1ccccc1S2=O)c1ccccc1 (stereo unspecified) | inactive: -4.91%

Row | Structure (SMILES) | activity change, negative = cytotoxicity
25 | CC(C)NC(=O)C1CCCN(c2ncnc3c2nc2n3CCCCC2)C1 (stereo unspecified) | inactive: 4.45%
26 | Cc1cccc(Cn2nnc(C(=O)Nc3cc(C)ccc3C)c2N)c1 | inactive: -8.36%
27 | Cc1cccc(C)c1NC(=O)CCCN1C(=O)CCn2nc(-c3cn(C)c4ccccc34)cc21 | inactive: -11.3%
28 | COc1ccc(C(=O)NCCn2cc(SCc3cc(C)ccc3C)c3ccccc32)cc1 | inactive: -10.3%
29 | COc1ccccc1NC(=O)c1ccc2oc(=O)c(S(=O)(=O)c3ccccc3)cc2c1 | inactive: 6.88%
30 | CC(CNS(=O)(=O)c1ccc2c(c1)CC(=O)N2C)c1ccccc1 (stereo unspecified) | inactive: 18.2%
31 | Cc1ccc(C(C)C)c(OCCCn2c(=O)oc3ccccc32)c1 | inactive: -1.42%
32 | CCOC(=O)c1c(C)oc2nc(C)nc(NCCCN3CCN(c4ccc(F)cc4)CC3)c12 | inactive: 4.38%
33 | CCOc1ccc(C2c3c(oc4ccccc4c3=O)C(=O)N2c2nnc(C)s2)cc1OC (stereo unspecified) | inactive: -8.07%
34 | Cc1cc(N2CCN(c3cccc(C)c3C)CC2)n2nc(C)c(-c3ccc(Cl)cc3)c2n1 | inactive: 1.59%
35 | Cn1nnc2c(NCc3ccccc3)ncnc21 | inactive: 1.12%
36 | Cc1cc(C)cc(-n2c(C)nc3cc(C(=O)NCc4ccc(F)cc4)ccc32)c1 | inactive: -1.8%
37 | CC(C)Cn1c(=O)c2ccccc2n2c(CCC(=O)NCc3ccc(Cl)cc3)nnc12 | inactive: -4.19%
38 | CCN(CCCNC(=O)c1cc2cc3ccc(OC)cc3nc2s1)c1cccc(C)c1 | inactive: -16.9%
39 | CCCN1C(=O)c2[nH]nc(-c3cccc(OC)c3)c2C1c1ccccn1 (stereo unspecified) | inactive: 1.63%
40 | CCCCn1c(=N)c(C(=O)NC2CCCCC2)cc2c(=O)n3cccc(C)c3nc21 | inactive: 24.9%
41 | Cn1c(=O)oc2cc(S(=O)(=O)NCCC(=O)NCc3ccc(F)cc3)ccc21 | inactive: -3.15%
42 | CCC(C)NC(=O)c1ccc2c(c1)N(Cc1ccccc1F)C(=O)c1ccccc1S2=O (stereo unspecified) | inactive: 8.58%
43 | O=C(CCC(=O)N1CCSc2ccccc21)NCc1ccccc1Cl | inactive: -6.4%
44 | CCOc1ccc(CCNC(=O)c2cn(-c3cccc(OC)c3)c(=O)c3ccccc23)cc1 | inactive: 8.4%
45 | CCc1nc2ccc(C(=O)NCc3ccc(SC)cc3)cc2nc1CC | inactive: 2.06%
46 | OCCN1CCN(C(c2ccc(Cl)cc2Cl)c2sc3nc(-c4ccco4)nn3c2O)CC1 (stereo unspecified) | inactive: -0.986%
47 | CCOc1ccc(-n2c(SCC(=O)Nc3ccc4c(c3)OCCO4)nc3c([nH]c4ccccc43)c2=O)cc1 | inactive: 6.32%
48 | Clc1ccccc1-c1nnc(-c2ccccc2CNc2ccc(Br)cc2)o1 | inactive: -1.79%

Row | Structure (SMILES) | activity change, negative = cytotoxicity
49 | CCOc1ccccc1CNC(=O)c1cnc2sc(N3CCOCC3)nn2c1=O | inactive: 10.1%
50 | CCN(C(=O)Cn1c(=O)nc(-c2ccccc2)c2cc(Cl)ccc21)c1cccc(C)c1 | inactive: 10.3%
51 | CCOc1ccc(CCNC(=O)Cn2ncc3c([nH]c4ccccc43)c2=O)cc1OCC | inactive: 4.47%
52 | Cc1ccc(Cl)cc1N1CCN(C(=O)c2ccc3c(c2)N(Cc2ccccc2F)C(=O)c2ccccc2S3=O)CC1 (stereo unspecified) | inactive: 30.9%
53 | O=C(CCS(=O)(=O)c1cc(Br)cc2c1N(C(=O)C1CC1)CC2)Nc1ccc(F)cc1 | inactive: 0.846%
54 | Cc1ccc(CNC(=O)c2sc3nc(-c4ccccc4)cn3c2C)cc1 | inactive: -6.67%
55 | CC(C)c1ccc2c(c1)NC(c1ccncc1)=NC(c1cccs1)=N2 | inactive: 2.33%
56 | COc1ccc(-c2cc(OC(=O)c3ccccc3)c3c(C)oc(C)c3c(=O)c2)cc1OC | inactive: 2.91%
57 | CCc1cccc(NC(=O)C(NS(=O)(=O)c2ccc3nc(C)sc3c2)C(C)C)c1 (stereo unspecified) | inactive: 2.54%
58 | CCOc1ccccc1NC(=O)CCc1c(C)nc2c(c(C)nn2-c2ccccc2)c1C | inactive: 4.22%
59 | C#CCSc1nc(-c2ccccc2)c2cc(Cl)ccc2n1 | inactive: 1.53%
60 | COc1cccc(NC(=O)Cn2cc(C(=O)c3ccc(F)cc3)c(=O)c3cc(OC)ccc32)c1 | inactive: 11%
61 | Cc1cccc(Cn2cnc3c(oc4ccccc43)c2=O)c1 | inactive: 11.1%
62 | C=CCc1ccc(OCc2ccc(C(=O)Nc3ccc(NC(C)=O)cc3)o2)c(OC)c1 | inactive: 23.7%
63 | CCCN(CCC)CCNC(=O)c1sc2nc3n(c(=O)c2c1C)CCCCC3 | inactive: 25.5%
64 | COc1ccc(-n2c(C)nc3cc(C(=O)NC4CCCCCC4)ccc32)cc1 | inactive: -13.7%
65 | Cc1ccc(C)c(N2C(=O)N(C)c3ccccc3S2(=O)=O)c1 | inactive: 19.1%
66 | COC(=O)c1c(NC(=O)c2nc(SCc3ccccc3C)ncc2Cl)sc2c1CCCC2 | inactive: -5.54%
67 | CCc1c(C)sc2c1CCN(C(=O)Nc1cc(C)ccc1OC)C2c1ccc(F)cc1 (stereo unspecified) | inactive: -1.69%
68 | COc1ccc(-c2c(C)nn3c(N4CCN(c5ccccc5F)CC4)cc(C)nc23)cc1OC | inactive: 14.1%
69 | Cc1cc(C)cc(NC(=O)N2CCC(CN3CCc4ccccc4C3)CC2)c1 | inactive: -0.0856%
70 | N#Cc1ccc(NC2=NS(=O)(=O)c3ccccc32)cc1 | inactive: -20.5%
71 | COc1ccc(CNC(=O)c2cccc(N3CCCS3(=O)=O)c2)cc1OC | inactive: -15.2%
72 | O=c1cc(-c2ccc(F)cc2)nc(SCc2nc(-c3cccc(C(F)(F)F)c3)no2)[nH]1 | inactive: 1.53%

Row | Structure (SMILES) | activity change, negative = cytotoxicity
73 | COc1ccc(NC(=O)CN2C(=O)C3(SCC(=O)N3c3ccccc3)c3ccccc32)cc1Cl (stereo unspecified) | inactive: -1.38%
74 | CCn1c(=NC(=O)c2ccc(S(=O)(=O)N3CCCC3)cc2)sc2cc(Br)ccc21 | inactive: 11.8%
75 | CCOC(=O)c1c(C)c(-c2ccccc2)n(CC(=O)NC2CCCCCC2)c1C | inactive: 13.3%
76 | O=C(Cc1ccccc1)NC1CC(=O)N(c2ccccc2)C1 (stereo unspecified) | inactive: 1.31%
77 | Cc1cc(-c2nc3ncccc3o2)ccc1NC(=O)COc1ccccc1C | inactive: -4.99%
78 | CCOC(=O)c1ccccc1NC(=O)CSc1ccc(-c2cccs2)nn1 | inactive: -7.09%
79 | O=c1c2oc3ccccc3c2n(Cc2cccc(Cl)c2)c(=O)n1Cc1ccco1 | inactive: -4.33%
80 | Cc1ccc2occ(CC(=O)N(Cc3ccc(Cl)cc3)C3CCS(=O)(=O)C3)c2c1 (stereo unspecified) | inactive: -10.5%
81 | CCN(CC)c1ccc(NC(=O)c2cnc3c(-c4ccccc4)c(C)nn3c2C)c(C)c1 | inactive: 3.79%
82 | Cc1nnc(N2CCN(C(=O)NC(C)C)CC2)c2nn(-c3ccccc3)c(C)c12 | inactive: 4.05%
83 | Cn1cc(S(=O)(=O)c2cccc(Cl)c2)c(=O)c2cc(F)c(N3CCN(c4ccc(F)cc4)CC3)cc21 | inactive: 8.23%
84 | Cc1ccc(-c2noc(CNS(=O)(=O)c3ccc(F)cc3)n2)cc1 | inactive: 2.98%
85 | CCc1ccc(Nc2nn(-c3ccc(OC(F)(F)F)cc3)nc2C(C)=O)cc1 | inactive: 11.9%
86 | COc1ccccc1N1CCN(C(=O)CN2C(=O)COc3ccc(S(=O)(=O)N4CCCCCC4)cc32)CC1 | inactive: 0.742%
87 | Cc1cccc(OCC(=O)Nc2nc3c(s2)CC(C(C)(C)C)CC3)c1C (stereo unspecified) | inactive: 7.13%
88 | CNC(=O)c1c(NC(=O)c2ccc(S(=O)(=O)N3CCCCC3)cc2)sc2c1CCC2 | inactive: 5.43%
89 | COc1ccc(-n2ccnc(NCc3ccccc3OC)c2=O)cc1 | inactive: -16.7%
90 | CCOc1ccc(N2CC(NC(=O)/C=C\c3ccc4c(c3)OCO4)CC2=O)cc1 (stereo unspecified) | inactive: 1.28%
91 | CCOC(=O)c1cc2c(=O)n3ccccc3nc2n(C(C)C)c1=NC(=O)c1cc2ccccc2o1 | inactive: -2.74%
92 | COc1ccc(CNC(=O)CN2C(=O)COc3ccc(S(=O)(=O)Nc4ccccc4)cc32)cc1 | inactive: 7.14%
93 | O=C(Nc1ccc(F)c(F)c1)c1cc(S(=O)(=O)NC2CCCCCC2)ccc1F | inactive: -26.4%
94 | CCc1ccc(C(=O)c2cn(CC(=O)NC3CCCCC3)c3nc(C)ccc3c2=O)cc1 | inactive: 7.4%
95 | O=C(c1ccccc1)n1nc(-c2ccccc2)nc1NCc1ccc(F)cc1 | inactive: 2.83%
96 | COc1cccc(CNC(=O)c2ccc3c(c2)c(C)c(C)n3Cc2ccccc2)c1OC | inactive: -12%
